Activation data for 81 compounds are collected here from PubChem BioAssay AID1645887 (National Center for Advancing Translational Sciences (NCATS), 2021).

Molecules are shown by their SMILES. “And” between values parts separate entries of the source, which are not always exact repeats. Identical values can stand only once. About 40 (0.2%) of roughly 16,000 compounds were called active. Another 1% or so got no clear call; they are omitted. Calls come from the whole dose curve; as a rule, active = well fitted activation curve with a large enough effect; inconclusive = small, poorly fitted or top-dose-only effect, or another doubt; inactive = no such curve, though single readings can be large or run the other way. This is one part of the list.
% is set by controls: 0 for no effect and ±100 for the full control effect.

In the experiment the target is Rap guanine nucleotide exchange factor 4 (Homo sapiens) (UniProt Q8WZA2). The experiment can be described thus: Validation qHTS for agonist of cAMP-regulated guanine nucleotide exchange factor 4 (EPAC2).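 Note: exchange makes BODIPY-GDP fluorescence drop when released from Rap1B; series mostly up to about 150 µM.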 The settings on record: EPAC2 Rap1B BODIPY-GDP exchange, fluorescence; activation: hits give high values. An outline of the steps: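 Fluorescent exchange assay: 100 nM EPAC2 with 250 nM RAP1B-BODIPY-GDP and 50 uM GDP; compound added, 5 min at room temperature, then read (ex 480/em 540 nm) every 5 min for 30 min. Normalized to 6.5 mM cAMP agonist control.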
UniProt Q8WZA2, sequence (Q8WZA2 whole entry, looked up): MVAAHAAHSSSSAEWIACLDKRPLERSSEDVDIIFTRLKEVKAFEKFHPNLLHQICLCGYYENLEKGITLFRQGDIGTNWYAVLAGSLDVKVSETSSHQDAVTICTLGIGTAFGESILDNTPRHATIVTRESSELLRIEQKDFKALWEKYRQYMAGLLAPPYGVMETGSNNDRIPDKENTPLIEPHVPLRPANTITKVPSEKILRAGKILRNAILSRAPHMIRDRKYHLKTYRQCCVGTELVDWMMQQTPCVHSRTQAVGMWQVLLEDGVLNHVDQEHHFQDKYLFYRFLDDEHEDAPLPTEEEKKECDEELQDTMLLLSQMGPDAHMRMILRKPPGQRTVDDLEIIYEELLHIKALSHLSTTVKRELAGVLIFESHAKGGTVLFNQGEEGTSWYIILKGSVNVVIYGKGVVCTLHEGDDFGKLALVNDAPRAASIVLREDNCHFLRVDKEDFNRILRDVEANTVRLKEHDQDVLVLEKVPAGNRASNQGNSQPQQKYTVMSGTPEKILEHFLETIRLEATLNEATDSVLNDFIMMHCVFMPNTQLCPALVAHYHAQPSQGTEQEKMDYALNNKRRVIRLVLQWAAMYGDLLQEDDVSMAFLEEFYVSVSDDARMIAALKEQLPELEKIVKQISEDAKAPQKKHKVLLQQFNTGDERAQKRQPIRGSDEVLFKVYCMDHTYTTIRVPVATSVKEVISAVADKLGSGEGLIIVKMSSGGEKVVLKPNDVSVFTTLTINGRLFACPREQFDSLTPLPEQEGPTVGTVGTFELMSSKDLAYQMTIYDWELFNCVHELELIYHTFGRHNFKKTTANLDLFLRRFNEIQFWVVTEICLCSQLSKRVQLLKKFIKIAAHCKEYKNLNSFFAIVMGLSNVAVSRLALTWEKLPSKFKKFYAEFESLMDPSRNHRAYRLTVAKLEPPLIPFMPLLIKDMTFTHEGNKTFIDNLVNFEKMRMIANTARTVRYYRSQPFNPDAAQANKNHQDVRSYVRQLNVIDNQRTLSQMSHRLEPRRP
Take `COc1ccc(C(=O)N2CCC3(CCCN(C)C3)CC2)cc1`: the activation was inactive: -5.53%.

With `COc1ncc2nc(-c3cccs3)c(=O)n(-c3ccccc3)c2n1`, the activation is inactive: 3.75%. The result for `COc1cc(C2Oc3cc(C4Oc5cc(O)cc(O)c5C(=O)C4O)ccc3OC2CO)ccc1O` (stereo unspecified) reads inactive: 0.204%; that for `CCCCCCCCCCCCCCCCCC(=O)NCC(COP(=O)([O-])OCC[N+](C)(C)C)OCC` (stereo unspecified), inactive: -33.6%.

Consider `CC(C)CNC(=O)c1cn(C2CCN(Cc3nc4ccccc4s3)CC2)nn1`, for which the activation was inactive: -4.68%.

Take `CCC(=O)O[C@@H]1CC(=O)O[C@H](C)C/C=C/C=C/[C@@H](O)[C@H](C)C[C@H](CC=O)[C@H](OC2O[C@H](C)[C@@H](O[C@H]3C[C@@](C)(O)[C@@H](OC(=O)CC)[C@H](C)O3)[C@H](N(C)C)[C@H]2O)[C@H]1OC` (stereo partly specified): the activation is inactive: -11%. For the compound `COc1ccc(-n2c(=O)c(-c3cccs3)nc3cnc(N4CCOCC4)nc32)cc1`, the activation is inactive: 3.93%.

On to `O=C1[C@H]2[C@H](C=CC[C@H]2C(=O)N2CCN(c3ccccc3)CC2)CCN1Cc1ccc(Cl)c(Cl)c1`, for which the activation was inactive: -0.791%.

As to `CCC1CN(CC(=O)NC(C)CO)Cc2cc(OC)ccc2O1` (stereo unspecified), the activation was inactive: -13.9%. The result for `NCCCCCCNS(=O)(=O)c1cccc2c(Cl)cccc12` reads inactive: -17% and inactive: 0.53% and inactive: 2.82%; that for `CCC(C)(C)OC(=O)N[C@@H](Cc1c[nH]c2ccccc12)C(=O)N[C@@H](CCSC)C(=O)N[C@@H](CC(=O)O)C(=O)N[C@@H](Cc1ccccc1)C(N)=O`, inactive: 79.6%; that for `Cc1cc2ccccc2c[n+]1C1CCCCC1`, inactive: -19.4%. Turning to `Cc1c(C2CCN(CCc3ccccc3)CC2)noc1-c1ccc(Cl)cc1`, the activation was inactive: -6.63% and inactive: -12.9%. For the compound `COc1ccc2cc1Oc1ccc(cc1)CC1c3cc(c(OC)cc3CCN1C)Oc1c(OC)c(OC)cc3c1C(C2)N(C)CC3` (stereo unspecified), the activation is inactive: -8.97%.

For the compound `CN1C2CCC1CC(OC(c1ccccc1)c1ccccc1)C2` (stereo unspecified), the activation is inactive: -20.7%. Consider `Cc1cccc(C(=O)NCc2nc(-c3ccccc3NC(=O)C3CCCO3)oc2C)c1` (stereo unspecified), for which the activation was inactive: -3.17%.

In the case of `Cc1cnc(-n2ncc(C(=O)N(C)CC3CCCN(C)C3)c2C2CC2)nc1-c1cccs1` (stereo unspecified), the activation is inactive: 2.98%.

`CC(=O)N1CCC2(CCCN(C(=O)Nc3cccc(C#N)c3)C2)CC1`: the activation was inactive: -3.71%. With `COc1ccccc1-c1cncnc1NCCN1CCOCC1`, the activation is inactive: -18.9%.

`CC(=O)Oc1c(C)c(C)c2c(c1C)CC[C@@](C)(CCC[C@H](C)CCC[C@H](C)CCCC(C)C)O2`: the activation is inactive: -47.1% and inactive: -2.92% and inactive: -29%. For the compound `COc1ccccc1CCn1c(=O)c(CCc2ccccc2)nc2cncnc21`, the activation was inactive: 4.36%. The result for `c1cncc(-c2cc(NCc3cccs3)ncn2)c1` reads inactive: -8.01%; that for `COc1cc(C)c(CN2CCc3nnc(C(C)NC(=O)c4cccnc4)n3CC2)cc1C` (stereo unspecified), inactive: -6.85%. Regarding `C[C@]12CC[C@@H]3c4ccc(O)cc4CC[C@H]3[C@@H]1CC[C@@H]2O`, the activation was inactive: -3.98% [middle of 4 runs]. The result for `Cc1noc(C)c1-c1cncnc1NCc1ccccc1` reads inactive: -14.7%; that for `CCCC(CCC)C(N)=O`, inactive: -9.29%. As to `COc1cc(=O)n2c(c1C(=O)N(C)Cc1nonc1C)CCN(Cc1ccccc1F)CC2`, the activation is inactive: 7.64%. For the compound `C=C[C@@H]1c2ccccc2N(S(=O)(=O)c2ccc(C)cc2)[C@H](c2ccccc2)C1(C#N)C#N`, the activation was inactive: -17.4%. The value for `CCN(CC)C(=O)c1cccc(C)c1` was inactive: -4.06%; that for `O=C(c1cnccn1)N1CCC2(CC1)CN(C(c1ccccc1)c1ccccc1)C2` was inactive: 3.63%; that for `Cc1cc(Cl)ccc1OCC(=O)NCC1Cc2cc(-c3cnccn3)ccc2O1` (stereo unspecified) was inactive: -4.92%. As for `CC(C)(C)NCC(O)COc1ccc(NC(=O)NC2CCCCC2)cc1` (stereo unspecified), the activation was inactive: 8.81%.

For the compound `CCN(CC)C(=O)c1cccnc1`, the activation was inactive: -2.53%. Turning to `O=c1[nH]c(=S)[nH]c(-c2ccccc2)c1Cc1c(O)ccc2ccccc12`, the activation was inactive: -29.7%. As for `c1cncc(-c2cncnc2-n2ccnc2)c1`, the activation was inactive: -13.5%.

As to `COc1cccc(Cn2c(=O)c(-c3ccccc3)nc3cnc(N4CCNCC4)nc32)c1`, the activation is inactive: -23.3%. `CCCN(CCC)S(=O)(=O)c1ccc(C(=O)O)cc1`: the activation is inactive: -18.9% and inactive: 8.22%. The value for `CC1CC2C3CCC4=CC(=O)C=C[C@]4(C)[C@@]3(F)[C@@H](O)C[C@]2(C)[C@@]1(O)C(=O)CO` (stereo partly specified) was inactive: -17.5%; that for `Cc1ccccc1-c1cc(N2CCN(C)CC2)ncn1` was inactive: -21.4%; that for `Cn1cc(NC(=O)c2cc(NC(=O)c3cc(NC=O)cn3C)cn2C)cc1C(=O)NCCC(=N)N` was inactive: -12.3%.

On to `CC(O)[C@H]1CC[C@H]2[C@@H]3CC[C@@H]4C[C@@H](O)CC[C@]4(C)[C@H]3CC[C@]12C` (stereo partly specified), for which the activation is inactive: -1.77%.

For the compound `CC(=O)N1CCN(c2ccc(OC[C@H]3CO[C@](Cn4ccnc4)(c4ccc(Cl)cc4Cl)O3)cc2)CC1`, the activation was inactive: -24.4% and inactive: -2.64% and inactive: -29.4%. The value for `O=C(c1ccncc1)N1CCC2(CCCN(Cc3ccccc3)C2)CC1` was inactive: -2.92%; that for `CS(=O)(=O)N1CCC2(CC1)CN(c1ccccc1)C2` was inactive: -1.26%.

On to `CC(=O)[C@H]1CC[C@H]2[C@@H]3CCC4=CC(=O)CC[C@]4(C)[C@H]3CC[C@]12C`, for which the activation is inactive: -3.73% [middle of 4 runs]. Regarding `CC(=O)OC1CC[C@@]2(C)C3CC[C@@]4(C)C(CC5O[C@@]6(CCC(C)CO6)C(C)C54)C3CC[C@@H]2C1` (stereo partly specified), the activation is inactive: 5.05%. As for `CCC1(C2CCN(Cc3cc4ccccc4o3)CC2)NC(=O)N(CC2COc3ccccc3O2)C1=O` (stereo unspecified), the activation is inactive: 3.7%.

As to `Cc1cnc(CNc2ncncc2-c2ccccc2C)cn1`, the activation is inactive: -1.64%. For the compound `CN(C)c1ncc2nc(-c3ccc(F)cc3)c(=O)n(C[C@H]3CCCO3)c2n1`, the activation is inactive: 0.996%. Turning to `C=CCN1C(=O)C(CC(C)C)NC1=S` (stereo unspecified), the activation is inactive: 7.71% and inactive: -14.7%. With `Cc1ccc(C(=O)Nc2cccc(-c3nc(CNC(=O)c4ccccc4-n4cccn4)c(C)o3)c2)s1`, the activation is inactive: -28.5%. The result for `FC(F)(F)c1ccccc1-c1nc(NCc2cccnc2)c2ccccc2n1` reads inactive: 1.34%; that for `Cc1nc2sccn2c1CN1CCOc2ccc(CN3CCN(c4ccc(F)cc4)CC3)cc2C1`, inactive: -1.73%; that for `COc1cc(=O)n2c(c1C(=O)N(C)Cc1ccsc1)CCN(Cc1cnn(C)c1C)CC2`, inactive: 4.94%. On to `C[C@@H](CN=[N+]=[N-])CN1CC[C@H](NC(=O)OCc2ccccc2)CCC1=O`, for which the activation was inactive: -25%. Take `CCc1nc2cc(C(=O)N(C)CC3COCCO3)cc(NC(=O)c3ccccc3OC)c2n1C` (stereo unspecified): the activation was inactive: -7.4%. The result for `O=S(=O)(c1ccccc1)N1CCC2(CCN(c3ncccn3)CC2)CC1` reads inactive: -3.62%; that for `OC(CN1CCC(Cc2ccc(F)cc2)CC1)c1ccc(Cl)cc1` (stereo unspecified), inactive: -6.15% and inactive: -25.9%; that for `CC(C)NC[C@@H](O)c1ccc(O)c(O)c1`, inactive: -3.05%. The value for `CCOC(=O)[C@@]12C[C@@H]1/C(=N/O)c1ccccc1O2` was inactive: -9.63%; that for `NC(Cc1cc(I)c(Oc2cc(I)c(O)c(I)c2)c(I)c1)C(=O)O` (stereo unspecified) was inactive: 3.34%; that for `CN(CCO)C(=O)c1cn(C2CCN(Cc3ccc4ccccc4c3)CC2)nn1` was inactive: -10.4%. With `CCCCCCCC(=O)OC[C@H](CO)OC(=O)CCCCCCC`, the activation is inactive: -6.68%. Take `O=C(/C=C/c1ccccc1)OC1CC(O)C2(O)C=CO[C@@H](OC3OC(CO)C(O)C(O)C3O)C12` (stereo partly specified): the activation was inactive: -6.7%. The result for `CN1CCc2cccc3c2[C@@H]1Cc1ccc(O)c(O)c1-3` reads inactive: 3.54%. The result for `CC(O)C(=O)O` (stereo unspecified) reads inactive: 7.9%; that for `CCC1CN(CC(=O)N(C)Cc2nc3ccccc3[nH]2)Cc2cc(OC)ccc2O1` (stereo unspecified), inactive: -13.2%; that for `N#Cc1cccc(NC(=O)N2CCCC3(CCN(C(=O)c4csnn4)CC3)C2)c1`, inactive: -2.59%. The value for `NC(=S)N/N=C/c1cccnc1` was inactive: -19.8%. Consider `O=C(O)CCCCC(=O)O`, for which the activation is inactive: -1.74%. On to `C[C@H]1OC(=O)CC[C@@H]2[C@]1(C)CCC1[C@@]2(C)CC[C@@]2(C)C3CC(C)(C)CC[C@]3(CO)CC[C@]12C` (stereo partly specified), for which the activation is inactive: -17.4%. As to `CN1CCN(c2ncc3nc(-c4cn(C)c5ccccc45)c(=O)n(Cc4cccs4)c3n2)CC1`, the activation was inactive: -4.2%. As for `Cc1ccc(CN2[C@H](C)[C@H](c3ccccc3)OCCS2(=O)=O)cc1`, the activation is inactive: -12.5%. On to `C=CCCCCCCCCCCCc1ccco1`, for which the activation is inactive: -34.9%. The result for `COC(=O)C[C@H]1c2cc(C(F)(F)F)ccc2S(=O)(=O)N1C1CCCCC1` reads inactive: -24.4%; that for `COCC1CCCN(c2nc(CN3CCN(C(=O)c4ccco4)CC3)nc3ccccc23)C1` (stereo unspecified), inactive: 3.25%; that for `CCOC(=O)c1ccc(-c2c(-c3ccc4c(c3)OCO4)noc2-c2ccsc2)cc1F`, inactive: -18.9%.

On to `CN[C@@H]1[C@@H](O)[C@@H](O[C@@H]2[C@@H](O)[C@H](O[C@H]3O[C@H](CN)[C@@H](O)[C@H](O)[C@H]3O)[C@@H](N)C[C@H]2NC(=O)C(O)CN)OC[C@]1(C)O` (stereo partly specified), for which the activation was inactive: -10.9%. `F[Si-2](F)(F)(F)(F)F`: the activation was inactive: -6.73%. With `COc1ccccc1CN1CCOc2ccc(C(C)(O)CN(C)C)cc2C1` (stereo unspecified), the activation was inactive: -8.59%.

In the case of `O=c1cnc2cncnc2n1Cc1ccccc1`, the activation is inactive: -8.65%.
